# About 14,000 (4.5%) of roughly 310,000 compounds showed an effect of 50% or more. The effect is printed as a negative number. The list shows a part of the results.
# Molecular target: human ether-à-go-go-related gene (hERG) potassium channel (human, UniProt Q12809)
# Test: primary screen, population patch clamp on CHO cells stably expressing hERG
# 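Also: peak tail current of the secondary pulse compared with the same well before compound.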
# Sequence of human ether-à-go-go-related gene (hERG) potassium channel (Q12809 whole entry, looked up): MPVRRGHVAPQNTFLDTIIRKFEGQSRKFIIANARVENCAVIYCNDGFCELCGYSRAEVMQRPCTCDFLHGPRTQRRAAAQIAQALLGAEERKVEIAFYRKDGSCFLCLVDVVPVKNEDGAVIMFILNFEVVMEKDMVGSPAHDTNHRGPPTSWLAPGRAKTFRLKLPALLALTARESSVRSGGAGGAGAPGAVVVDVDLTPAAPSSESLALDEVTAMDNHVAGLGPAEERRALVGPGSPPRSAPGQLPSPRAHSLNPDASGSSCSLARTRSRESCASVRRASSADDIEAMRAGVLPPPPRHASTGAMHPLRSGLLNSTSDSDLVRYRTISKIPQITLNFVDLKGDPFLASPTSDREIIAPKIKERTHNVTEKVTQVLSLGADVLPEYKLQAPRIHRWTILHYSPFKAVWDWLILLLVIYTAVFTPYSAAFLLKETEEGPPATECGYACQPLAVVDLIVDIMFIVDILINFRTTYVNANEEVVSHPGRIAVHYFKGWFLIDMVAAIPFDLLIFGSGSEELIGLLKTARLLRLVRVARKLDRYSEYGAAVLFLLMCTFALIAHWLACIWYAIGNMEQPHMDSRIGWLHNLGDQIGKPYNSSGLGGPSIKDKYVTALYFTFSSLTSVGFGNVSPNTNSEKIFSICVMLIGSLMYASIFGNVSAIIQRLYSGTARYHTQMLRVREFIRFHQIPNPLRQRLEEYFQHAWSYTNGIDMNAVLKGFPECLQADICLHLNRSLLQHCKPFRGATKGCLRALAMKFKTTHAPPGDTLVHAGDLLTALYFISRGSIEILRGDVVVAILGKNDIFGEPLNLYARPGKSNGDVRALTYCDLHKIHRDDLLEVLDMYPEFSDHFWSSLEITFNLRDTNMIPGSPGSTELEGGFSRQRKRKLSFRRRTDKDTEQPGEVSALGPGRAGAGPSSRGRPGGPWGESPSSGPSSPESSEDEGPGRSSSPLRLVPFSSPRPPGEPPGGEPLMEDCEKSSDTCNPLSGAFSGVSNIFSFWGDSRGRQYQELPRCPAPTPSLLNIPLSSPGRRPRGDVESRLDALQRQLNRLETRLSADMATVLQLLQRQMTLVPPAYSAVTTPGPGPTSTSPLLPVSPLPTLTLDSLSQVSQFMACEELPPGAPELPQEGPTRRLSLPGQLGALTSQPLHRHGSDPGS
row,Compound,"hERG current change (%, negative = inhibition) at 10uM [%]"
1,CC(NC(=O)c1cccc(S(=O)(=O)N2CCN(Cc3ccccc3)CC2)c1)c1ccc(Br)cc1 (stereo not shown),-17.6
2,O=C1CSCC(=O)N1Cc1ccc(Cl)cc1Cl,13.5
3,CCCN1C(=O)c2ccccc2NC1c1ccc(OC)c(CSc2ccccn2)c1 (stereo not shown),-2.44
4,COc1cc(C(=O)N2CCC(c3nc(-c4cccnc4)no3)CC2)cc(OC)c1OC,-8.08
5,O=c1ccc(NS(=O)(=O)c2ccc(Cl)cc2)cn1Cc1ccc(Cl)c(Cl)c1,8.48
6,Nc1c(O)cccc1C(=O)O,11.2
7,O=C1[C@H]2[C@H](ON3CCCC[C@H]23)C(=O)N1c1ccc(Cl)cc1,16.3
8,CC(Oc1ccc(Cl)cc1)c1ccnn1S(=O)(=O)c1ccccc1 (stereo not shown),5.02
9,O=C(/C=C/c1ccccc1)c1ccoc1,-6.57
10,CCOCc1nnc(NC(=O)CSc2ccc(C)cc2)s1,6.61
11,CCCNC(=O)c1ccccc1N1CCN(CCCCN2C(=O)C3CCCCN3C2=O)CC1.Cl.O (stereo not shown),-33.5
12,Cc1cccc(/C=C/C(=O)c2ccc(NC3=NCCCS3)cc2)c1,4.59
13,CC(=O)Nc1cc(C(=O)CSc2nnc(C3CC3)n2C2CC2)ccc1O,2.93
14,COC(=O)c1ccccc1NC(=O)c1cn(-c2ccc(C)c(C)c2)c(=O)c2ccccc12,24.8
15,CCOc1cc(/C=N/NC(=O)COc2ccc(C)cc2)ccc1OC(=O)c1cccs1,-4.03
16,CCc1ccccc1NC(=O)CN(C)C(=O)CSc1nnc(Nc2cccc(C)c2C)s1,-3.55
17,NNC(=O)COc1ccccc1F,6.85
18,COc1ccc(COC(=O)N/N=C(\C)CC(=O)Nc2ccc(Cl)cn2)cc1,-30.7
19,CCOC(=O)c1sc(NC(=O)COc2ccc3c(c2)OCO3)nc1C,7.47
20,O=C(CCS(=O)(=O)Cc1cccc(Cl)c1)NCCc1ccccc1,15.2
21,CC(OC(=O)C1CC1)C(=O)Nc1ccc([N+](=O)[O-])cc1Cl (stereo not shown),-10.1
22,CC12CCC(C(=O)Nc3cc(Cl)ccc3Cl)(C/C1=N\O)C2(C)C (stereo not shown),-19

row,Compound,"hERG current change (%, negative = inhibition) at 10uM [%]"
1,CC(C)c1ccc(CCNC(=O)c2cccc(S(=O)(=O)N3CCN(C)CC3)c2)cc1,-26
2,O=[N+]([O-])c1ccc2c(c1)C=C1CCCCC1(N1CCCC1)O2 (stereo not shown),2.82
3,CC1=NOC(=O)/C1=C\c1ccc(-c2cccc(Cl)c2)o1,10.4
4,COc1cc2c(cc1OC)CN(C(=O)CSc1nnc(C)s1)CC2,20.7
5,Cc1ccccc1NS(=O)(=O)c1ccc(NS(=O)(=O)c2cccs2)cc1,2.87
6,Cc1ccc2c(C)nc(Nc3nc(CSc4nc5ccccc5[nH]4)cc(=O)[nH]3)nc2c1,-5.41
7,CCCCCCCN(C(=O)CCl)c1ccccc1C,1.78
8,COc1ccc(-c2csc(NC(=O)c3ccccc3Br)c2C(=O)O)cc1,13.2
9,COc1ccccc1CN(CC(=O)NCC1CCCO1)C(=O)CNS(=O)(=O)c1ccc(C)cc1 (stereo not shown),-29.6
10,CCOC(=O)c1nn(-c2ccc(F)cc2)c2nc(Nc3ccccc3)cc(=O)n12,6.17
11,O=C(CSc1ccccn1)N/N=C/c1c[nH]c2ccccc12,13.6
12,O=C(CC(C(=O)O)P(=O)(c1ccccc1)c1ccccc1)c1ccccc1 (stereo not shown),24.3
13,N#Cc1ccsc1NC(=O)CN(Cc1ccccc1)Cc1ccccc1,3.65
14,COCCN(C(=O)CSc1nc2ccc(Cl)cc2[nH]1)c1c(N)n(Cc2ccccc2)c(=O)[nH]c1=O,-7.02
15,COc1ccc(-c2nc(SC(C)C(=O)NCC3CCCO3)n[nH]2)cc1 (stereo not shown),-8.66
16,CCOC(=O)N1CCC(N2C(=O)c3ccccc3C2Nc2ccc(S(=O)(=O)N3CCOCC3)cc2)CC1 (stereo not shown),-16.7
17,CCOC(=O)c1sc(N)c(C#N)c1CSc1nnc(C2CCCCC2)n1N,-1.65
18,Cc1c(C=C2C(=O)NC(=O)NC2=O)c(=O)n(-c2ccccc2)n1C,19.9
19,COc1ccc(C(=O)NC2CCCCCC2)cc1S(=O)(=O)N1CCCC1,5.55
20,Cc1nnsc1C(=O)N1CCCC(Nc2ccc(C(C)C)cc2)C1 (stereo not shown),-13.4
21,O=C(NCC1OCCCN1S(=O)(=O)c1cc(F)ccc1F)C(=O)NC1CCCC1 (stereo not shown),-3.09
22,CCNC(=S)N(CCN(C)C)Cc1cc2cc(OCC)ccc2[nH]c1=O,-23.3

row,Compound,"hERG current change (%, negative = inhibition) at 10uM [%]"
1,Cn1c(SCc2ccccc2)nc(C(F)(F)F)cc1=O,-33.2
2,O=C(CCn1cnc2ccccc2c1=O)Nc1nc2c(s1)CCCC2,7.92
3,Cc1ccc(CNC(=O)CCNS(=O)(=O)c2cccc3nsnc23)cc1,-4.7
4,CN(Cc1ccon1)C(=O)CC1C(=O)NCCN1CC1CCCCC1 (stereo not shown),11.6
5,Cc1cccc(C)c1NC(=O)COC(=O)CCc1c[nH]c2ccccc12,6.23
6,Cc1nc2ccc(F)cc2cc1C(=O)Nc1ccc(Cl)c(Cl)c1,20.6
7,CC1CCCC(C)N1C(=O)COc1ccc(C(=O)Nc2ccccc2N2CCOCC2)cc1 (stereo not shown),-20.1
8,Cc1ccc(CS(=O)(=O)CCC(=O)NCCc2ccccc2)cc1,11.8
9,COC(=O)C1=C(C)NC(=S)NC1c1sccc1C (stereo not shown),8.98
10,CC1(c2ccccc2)NC(=O)N(CC(=O)NCc2cccc(Cl)c2)C1=O (stereo not shown),-10.6
11,COc1ccccc1NS(=O)(=O)c1cccc(C(=O)NNC(=O)c2ccc(NC(C)=O)cc2)c1,10.2
12,Cn1c(=O)[nH]c(=O)c2c1nc(NCCCO)n2CCCc1ccccc1,-5.36
13,COCCNC(=O)c1ccc2c(=O)n(Cc3ccco3)c(SCC(=O)NC3CCCC3)nc2c1,-45.2
14,Cc1[nH]c(=O)nc(SCc2ccc(Cl)c(Cl)c2)c1C#N,13.5
15,O=C(COc1ccc(Cl)cc1)Nc1cccc(-c2ccc(N3CCOCC3)nn2)c1,0.684
16,Cc1ccc(NC(=O)c2cc3cccc([N+](=O)[O-])c3[nH]2)cc1,9.96
17,COc1ccc(CCC(C)NC2CCCCCCC2)cc1 (stereo not shown),-31.2
18,Oc1ccc(F)cc1-c1cc(-c2ccc3c(c2)OCCO3)n[nH]1,17.8
19,Cn1nnc2cc(C(=O)Nc3cccnc3)ccc21,4.88
20,Cc1[nH]nc2c1/C(=N\O)CCC2,0.346
21,COc1ccccc1N1CCN(Cc2cnc(-c3ccccc3)[nH]2)CC1,-29.8
22,O=C(O)C(=O)O.c1ccc(-c2ccccc2OCCOCCN2CCOCC2)cc1,6.15

row,Compound,"hERG current change (%, negative = inhibition) at 10uM [%]"
1,CCCCN1C(=O)CCC(C(=O)O)C1c1ccc([N+](=O)[O-])cc1 (stereo not shown),18.4
2,CCOc1ccc(CN(C)C(=O)[C@H](Cc2ccccc2)NC(=O)OCc2ccccc2)cc1OC,-15.7
3,C=CCNC(=S)Nc1cccc2[nH]ncc12,9.04
4,COCCn1c(SCC(=O)c2c(N)n(C3CC3)c(=O)[nH]c2=O)nnc1-c1ccc(Cl)cc1,13.6
5,CCCN(Cc1nnc(-c2cccs2)o1)C(=O)c1cccc(S(=O)(=O)N2CCOCC2)c1,-25.3
6,COc1ccc(Cc2nnc(CCc3ccccc3)s2)cc1,-3.78
7,CNc1ccccc1C(C)(C)c1cc(-c2cccc(Br)c2)no1,-3.29
8,COc1cc2c(cc1OC)C(c1cccnc1)CC(=O)N2 (stereo not shown),-18.2
9,CCCn1c(N)c(C(=O)CSc2nc3ccccc3n2CCC#N)c(=O)n(C)c1=O,4.46
10,Nc1nonc1-n1nnc(C(=O)N/N=C/c2ccncc2)c1CSc1ccccc1,-1.76
11,CCN1CCN(c2nc3ccccn3c(=O)c2/C=C(\C#N)S(=O)(=O)c2ccccc2)CC1,-42.3
12,CCN(CC)C(=O)Cn1nc(C)c2ccccc2c1=O,16.1
13,O=C(CO/N=C/c1ccccc1OC(F)F)NC1CCCC1,-13.7
14,COc1ccc(/C=N/NC(=O)c2ccc(COc3ccccc3Cl)o2)cc1,2.39
15,O=C(CSc1nnc(NC(=O)c2c(F)cccc2F)s1)NCc1ccco1,-6.47
16,COc1ccc(S(=O)(=O)n2nc(C)c(S(=O)(=O)N3CCOCC3)c2C)cc1,19.4
17,COc1ccc(S(=O)(=O)Nc2c(C(=O)O)[nH]c3ccccc23)cc1OC,-11.8
18,O.[I-].c1ccc2[nH]c(-c3cc[nH+]c4ccccc34)nc2c1,-12.6
19,O=Cc1ccccc1OCc1nnsc1Cl,12.8
20,O=C(Nc1nc2ccccc2s1)C1CC(=O)N(c2ccc(Cl)cc2)C1 (stereo not shown),4.35
21,Cc1nn(C)c2c(=O)c(=O)c2n(C)[nH]1,18
22,CSc1nc(-c2ccco2)nn1C(=O)c1ccco1,11.7

# Source: publication PMC4336329 (PLoS ONE, 2015)
